This note sets out measurements from patent US20240317727A1 (Duke University, priority 2018, published 2024).

Each structure is given as a SMILES string.

The subject of this assay is NCI-H322M. The assay is described as follows: cells. The note with it: Non-Small Cell Lung Cancer, two days. The method, then:
HSF1 binding compounds were tested for its activity in suppressing the growth of a broad range of cancer types. For example, Compound 0017 was incubated for two days with a diverse series of cancer cell lines in the NCI60 collection and cell growth and viability were measured, and the results are shown in Table 4.

`O=C(Nc1ccc(F)cc1)Nc1ccc(Cl)c([N+](=O)[O-])c1` [Compound 0017, 1-(4-chloro-3-nitrophenyl)-3-(4-fluorophenyl)urea]: the “log10 [TGI (M)]” value is on record as −4.92 log10 M. In addition, the GI50 (Homo sapiens, 48 h, read-out: log10 [GI50 (M)] (converted)) is 3.31e-06 M. For the setting “Homo sapiens, 48 h, read-out: log10 [LC50 (M)] (converted)”, the CC50 is 5.25e-05 M.

Broadly, the GI50 is the concentration that inhibits growth by half.
